# Measured values from PubChem BioAssay AID651820 (National Center for Advancing Translational Sciences (NCATS), 2012).
# The campaign covered roughly 340,000 compounds. About 12,000 (3.5%) were called active. Inconclusive results, whose numbers are uncertain, are shown with a selection of clear calls. Calls follow the shape of the dose curve; as a rule, active = well fitted inhibition curve with a large enough effect; inconclusive = small, poorly fitted or top-dose-only effect, or another doubt; inactive = no such curve, though single readings can be large or run the other way. No potency is given beside an inconclusive call; the fits are too rough.
# Experiment: qHTS Assay for Inhibitors of Hepatitis C Virus (HCV)
# Settings: Huh7.5.1 HCVcc-Cre (HCVcc is cell-culture hepatitis C virus) infection, luciferase reporter, 44 h; activity change, negative = inhibition: at 41.8 µM (top of the series)
# How it was run: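 Cells seeded at 1,000/well and cultured 4 h, then compounds added followed by HCVcc-Cre virus (~0.5 moi). After 44 h further culture, luciferase substrate was added, plates held 15 min at room temperature, and luminescence read for 15 sec.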
# % is scaled to controls: 0 for no effect and ±100 for the full control effect; potency is read from the fitted curve at half-maximal effect; tags tell the direction and shape of the fitted curve.
SMILES,Potency,"activity change, negative = inhibition"
CCCn1c(SCC(=O)Nc2ccc(C(=O)Nc3ccccc3OC)cc2)n[nH]c1=O,"inconclusive [inhibitor, partial curve]",
CCOC(=O)C1(CC2CCCCO2)CCN(Cc2cc(F)ccc2-n2cccn2)CC1 (stereo not drawn),,inactive: 1.36%
COC(=O)CCCC1=CC2=C(c3ccccc3)C(=O)C(C)(OC(=O)C3CCCC3)C(=O)C2=CN1C1CCCCC1 (stereo not drawn),"inconclusive [inhibitor, single point]",
O=C(CSc1cn(CCNC(=O)c2ccccc2F)c2ccccc12)NCC1CCCO1 (stereo not drawn),"inconclusive [inhibitor, partial curve]",
CC(C)c1ccc(/C=C/C(=O)NC(=S)Nc2ccc(CN3CCOCC3)cc2)cc1,"inconclusive [inhibitor, single point]",
CCCn1nnc(NC(=O)/C=C/c2cc(Br)ccc2OC)n1,"inconclusive [inhibitor, partial curve]",
CC(C)CN(C)Cc1c(C(=O)N2CCc3ccccc3C2)nc2ccc(Cl)cn12,"inconclusive [inhibitor, single point]",
Cc1nc(-c2cccc(-c3noc(C)n3)c2)no1,"inconclusive [inhibitor, single point]",
CN1CCC(=C(c2ccccc2)c2ccc(Br)cc2)CC1,active: 8.91 µM,
O=C(CCC1CCCCC1)NCCS(=O)(=O)N1CCN(c2ccccc2)CC1,,inactive: 1.1% [at 8.37 µM]
Cn1nc(-c2ccccc2)c(CO)c1Oc1ccc(F)cc1,,inactive: -23.8%
COCCN(C(=O)Cc1coc2cc(C)c(C)cc12)c1c(N)n(Cc2ccccc2)c(=O)[nH]c1=O,,inactive: -1.84%
CN(C)S(=O)(=O)c1ccc2c(c1)/C(=C/c1cc3c([nH]1)CCCC3)C(=O)N2,"inconclusive [inhibitor, single point]",
O=[N+]([O-])c1ccc(O)c(/C=N/n2c(CO)nc3ccccc32)c1,,inactive: -2.67%
CCOc1ccc(CN(C)c2ccc(S(=O)(=O)N3CCN(C)CC3)cc2[N+](=O)[O-])cc1OC,"inconclusive [inhibitor, full curve]",
CC1(C)CC(=O)C2=C(C1)NC1=C(C(=O)c3ccccc31)C2c1ccc(Cl)cc1 (stereo not drawn),active: 11.2 µM,
Cc1ccc(C(NC(=O)NC(C)c2ccccc2)C(Cl)(Cl)Cl)cc1F (stereo not drawn),active: 10 µM,
CN(CC(=O)Nc1cccc2ccccc12)C(=O)/C=C/c1cccs1,,inactive: 33.5%
CCOc1cc(C(C(=O)NCC2CCCO2)N(C(=O)Cn2nnc3ccccc32)c2ccccc2OC)ccc1O (stereo not drawn),,inactive: 28.9%
COC(=O)c1ccc(/C=N\NC(=O)CC(=O)NCCc2ccccc2)cc1,,inactive: -6.42%
C[C@H](NC(=O)c1[nH]cnc1C(=O)Nc1ccc(CNC(=O)OC(C)(C)C)cc1)C(=O)OCc1ccccc1,"inconclusive [inhibitor, single point]",
C/C(=N\NC(=O)c1ccc(F)cc1)c1cccc(NC(=O)c2cccc(F)c2)c1,"inconclusive [inhibitor, full curve, poor fit]",

SMILES,Potency,"activity change, negative = inhibition"
C=CCc1cccc(/C=N/NC(=O)CNc2ccccc2)c1O,"inconclusive [inhibitor, single point]",
CC(c1ccco1)N(C(=O)CSc1ccc(Br)cc1)c1ccccn1 (stereo not drawn),"inconclusive [inhibitor, single point]",
O=C1c2cc(Cl)ccc2-c2c(O)cc(Cl)cc21,"inconclusive [inhibitor, single point]",
c1ccc(-c2c[nH]c3[n+]2CCCCC3)cc1,"inconclusive [inhibitor, single point]",
COc1ccc(NC(=S)NCCSc2ccc(C)cc2)c(OC)c1,"inconclusive [inhibitor, single point]",
O=C(O)c1nn(CC(=O)N(C2CCCCC2)C2CCCCC2)c(=O)c2ccccc12,"inconclusive [inhibitor, single point]",
CCCCn1c(N)c(N(CC(C)C)C(=O)c2ccc(-c3ccc(Cl)cc3)o2)c(=O)[nH]c1=O,"inconclusive [inhibitor, single point]",
CC(C)CC(=O)Nc1nnc(-c2ccco2)s1,,inactive: -3.17%
CCOc1ccccc1C(=O)N/N=C/c1c[nH]c2ccccc12,"inconclusive [inhibitor, partial curve]",
CC(C)C1N=C2c3ccccc3N=C(SCc3cc(=O)n4cc(Cl)ccc4n3)N2C1=O (stereo not drawn),"inconclusive [inhibitor, single point]",
C[C@H](CO)NC(=O)[C@@H]1C[C@H]1[C@@H](NP(=O)(c1ccccc1)c1ccccc1)c1ccccc1,,inactive: 17.1%
Cc1ccc2[nH]c3c(=O)n(CC(=O)NCCCN(C)Cc4ccccc4)ncc3c2c1,"inconclusive [inhibitor, single point]",
CC/C(=N\NC(=O)c1nnn(-c2nonc2N)c1-c1cccs1)c1ccccc1,,inactive: -11.9%
COC(=O)C1=C(C(=O)OC)[C@]2([C@H]3CCCCN[C@@H](Cc4ccccc4)C(=O)N3Cc3ccccc3)C=C[C@H]1O2,active: 11.2 µM,
CCC(c1nnnn1Cc1ccc(OC)cc1)N1CCN(c2ccc(OC)cc2)CC1 (stereo not drawn),"inconclusive [inhibitor, single point]",
CC(C)[C@@H](C(=O)NC1CCCC1)N1C(=O)N2CCc3c([nH]c4ccccc34)[C@@]2(C)C1=O,"inconclusive [inhibitor, single point]",
O=S(=O)(/N=C(/Nc1cccc2ccccc12)c1ccccc1)c1ccccc1,,inactive: 2.6%
CCOc1cc(C)nc(N2CCC(C(=O)Nc3ccccc3OCC)CC2)n1,"inconclusive [inhibitor, single point]",
OC(c1ccccc1)(c1ccc(Cl)cc1)C1CN2CCC1CC2 (stereo not drawn),active: 2.82 µM,
NC(=O)C1CCN(c2nc(-c3ccccc3)nc3c2oc2ccccc23)CC1,"inconclusive [inhibitor, single point]",
COc1cc(CN(C2CC2)S(=O)(=O)c2ccccc2Br)cc(OC)c1,"inconclusive [inhibitor, partial curve]",
